The source of these data is PubChem BioAssay AID1508624 (National Center for Advancing Translational Sciences (NCATS), 2021).

The whole screen tested about 48,000 compounds, of which about 120 (0.25%) were called active. Inconclusive results (about 4%) are left out. The call rests on the fitted dose curve; in most records, active means well fitted activation curve with a large enough effect; inconclusive means small, poorly fitted or top-dose-only effect, or another doubt; inactive means no such curve, though single readings can be large or run the other way. This is a selection; strong and weak results do not stand in their true shares. Where no call is shown, the source filed none.
Potency means the concentration at half of the fitted maximal effect.

This experiment can be described thus: Primary qHTS for Identification of Small Molecule Activators of Huntingtin-Antisense Promoter Activity. Further: nearly all actives have a fitted effect of over 55% in size. The following applies: HEK293 HTT-AS promoter firefly luciferase reporter, 24 h; activity change, positive = activation: at 57.5 µM (top of the series), percent change from vehicle, -100% = no light. The method in brief: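 Luminescence was read after Dual-Glo reagent and a 10 min room-temperature incubation. Values were normalized to vehicle (0% activity) and zero RLU (-100% activity). Reporter HEK293 cells had been exposed to compounds (up to 57.5 uM final) for 24 h.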
(Quantitative high-throughput screening tests each substance at several concentrations.)
Take `CC(=O)c1ccc(NC(=O)c2cc(-c3ccc(Cl)c(Cl)c3)on2)cc1`: the activity change, positive = activation was determined as 11.6%.
Same read-out and setting: with `COc1ccccc1-c1cc(C(=O)Nc2cc(Cl)ccc2O)no1` the figure was 13.4%; with `CCOc1ccc(CNC(=O)c2cnc3sc(N4CCC(C)CC4)nn3c2=O)cc1OC`, -6.2%; with `O=S(=O)(Nc1cccc(-c2ccc(N3CCCCC3)nn2)c1)c1ccc(Cl)s1`, 63.4%.
As for `COC(=O)Nc1ccc(-c2nc(N3CCOCC3)c3cnn(C4CCN(C(=O)OC)CC4)c3n2)cc1`, the “activity change, positive = activation” value was inactive: -44%.
Same read-out and setting: for `COc1ccc2c(c1)CC[C@@H](CN(C)CC(=O)O)[C@H]2c1ccccc1` the value was inactive: -40.2%.
For the compound `O=C(CC(c1ccccc1)c1cc(Br)ccc1O)NCC1(c2ccccc2)CCCC1` (configuration not stated), the activity change, positive = activation is -57%.
For the compound `COc1ccc(CCn2c3c(c(=O)[nH]c2=O)C(NC(=O)c2ccccc2)(C(F)(F)F)C(=O)N3)cc1OC` (configuration not stated), the “activity change, positive = activation” value was inactive: -7.79%.
In the case of `COc1ccc(C2C(=O)N(C3CCC(C)CC3)CC(=O)N2Cc2ccc(C)cc2)cc1OC` (configuration not stated), the activity change, positive = activation was -15.8%.
With `Cc1ccc(N2CC(NC(=O)Cc3cccs3)CC2=O)cc1` (configuration not stated), the “activity change, positive = activation” value is inactive: -7.5%.
On the same count and under the same terms, with `Cc1cc(-c2ccc(S(=O)(=O)Nc3ccccc3C)cc2)on1` the figure was -30.2%.
On the same count and under the same terms, for `COc1ccc(CNC(=O)C2CCCCN2S(=O)(=O)c2ccc(F)cc2)cc1` (configuration not stated) the value was -23.8%.
The same measure, in the same setting: with `CCc1ccc(NC(=O)CC2C(=O)N(c3cccc(C)c3)C(=O)N2Cc2cccc(OC)c2)cc1` (configuration not stated) the figure was -31.9%.
For `CCc1nn(CC(=O)NCc2ccco2)c(=O)c2cc3cc(F)ccc3n12`, the activity change, positive = activation is -5.35%.
As to `Cc1cccc(-n2nnc(-c3nc(-c4cccs4)no3)c2N)c1C`, the Potency was active: 0.355 µM.
In the case of `COc1ccccc1Nc1ncc2c(n1)CCN(CC(C)C)C2`, the Potency is active: 12.6 µM.
Take `COc1ccc(-c2nc(SCC(=O)NCc3nc4ccccc4n3C)n3[nH]c(=O)cc3n2)cc1`: the activity change, positive = activation came to 1.97%.
In the case of `Cc1ccc(OCCSc2nc(-c3cccs3)nc3cc(=O)[nH]n23)cc1Cl`, the activity change, positive = activation was -9.02%.
As to `COc1ccccc1CCNC(=O)Cc1c(C)c2c(O)cc(C)cc2oc1=O`, the activity change, positive = activation is -2.54%.
In the case of `CC(=O)c1[nH]c(C)c(C(=O)NCc2ccc(Cl)cc2)c1C`, the “activity change, positive = activation” value is inactive: -49.8%.
For `COc1cc(C)c(S(=O)(=O)Nc2cccc(-c3ccc(N4CCCC4)nn3)c2)cc1C`, the activity change, positive = activation is -8.32%.
`CCc1cc(=O)oc2cc(C)c3c(-c4ccc(F)cc4)coc3c12`: the activity change, positive = activation was -6.76%.
On the same count and under the same terms, for `COC(=O)c1c(NC(=O)C2c3ccccc3Oc3ccccc32)sc2c1CCC(C)C2` (configuration not stated) the value was -11.2%.
The same measure, in the same setting: for `Cc1nc2scc(C)n2c(=O)c1S(=O)(=O)Nc1ccc(N2CCN(C(=O)C(C)C)CC2)cc1` the value was -38.2%.
On the same count and under the same terms, with `CCc1ccccc1NC(=O)c1cc(-c2ccc3c(c2)OCO3)on1` the figure was 66.6%; with `O=C(NCCCc1nc2ccccc2n1Cc1ccc(Cl)cc1Cl)c1ccco1`, -17.3%; with `CC(=O)c1ccc(NC(=O)c2noc3c2CCc2ccccc2-3)cc1`, 49.4%.
For `CC(C)CS(=O)(=O)c1oc(-c2ccc(F)cc2)nc1S(=O)(=O)c1ccccc1`, the “activity change, positive = activation” value is inactive: -94.4%.
Still for that read-out and setting: for `CCOc1ccccc1CNC(=O)Cn1c(-c2ccccc2)cc(C(C)=O)c1C` the value was -0.751%; for `CCOc1cccc(C(=O)Nc2ccc3oc(-c4cccnc4)nc3c2)c1`, inactive: -8.42%.
Regarding `CCCNC(=O)c1cnc2sc(N3CCCCC3)nn2c1=O`, the activity change, positive = activation was 7.55%.
Take `CCOC(=O)c1ccc(N2CCN(c3cc(Cl)ccc3C)CC2)c(NC(=O)Nc2cccc(OC)c2)c1`: the activity change, positive = activation is -7.34%.
Take `COc1ccc2c(c1)cc1c(=O)n(CC(=O)NC3CCCCC3)nc(C)n12`: the activity change, positive = activation was -10.2%.
Same read-out and setting: for `CCc1ccc(NC(=O)CC2C(=O)N(c3cccc(OC)c3)C(=O)N2Cc2ccco2)cc1` (configuration not stated) the value was -5.65%; for `COc1cc(C2C(=O)N(C3CCCCC3)CC(=O)N2C2CCCC2)ccc1OC(C)C` (configuration not stated), 13.8%; for `COc1ccc(S(=O)(=O)Nc2cccc(-c3ccc(N4CCOCC4)nn3)c2)cc1F`, 21.9%.
For the compound `Cc1nc2scc(C)n2c(=O)c1S(=O)(=O)NCc1ccccc1Cl`, the activity change, positive = activation was determined as 4.96%.
Still for that read-out and setting: with `Cc1cccc(NC(=O)c2ccc(C(=O)Nc3cccc(C)c3C)cc2)c1C` the figure was 7.46%; with `Cc1ccc(-c2cc(C(=O)NC(C)c3ccccc3)c3ccccc3n2)cc1C` (configuration not stated), inactive: 0%; with `O=C(CSc1nnc(COc2ccc(Cl)cc2)o1)Nc1ccccc1`, -14.8%.
On the same count and under the same terms, with `CC(C)Oc1cccc(NC(=O)C2CCN(S(=O)(=O)Cc3ccccc3)CC2)c1` the figure was -2.87%; with `Cc1cccc(N2C(=O)C(CC(=O)Nc3cccc(F)c3)N(Cc3cccs3)C2=O)c1` (configuration not stated), -16.4%; with `Cc1nc2cccnc2n1C1CCN(S(=O)(=O)c2ccc(Cl)cc2)CC1`, -12.1%.
On the same count and under the same terms, for `CCc1c(O)cc(O)c(C(=O)c2ccc(OCCN3CCOCC3)c(OC)c2)c1CC(=O)N(CCOC)CCOC` the value was inactive: -53.6%; for `CCCc1nn2c(=O)cc(COC(=O)c3cccc(NC(=O)CCc4ccccc4)c3)nc2s1`, inactive: 8.5%; for `COc1ccc(CCN2CCN(CCCc3ccccc3)CC2)cc1OC`, inactive: -12.1%.
For `Cc1cccc(N2CCN(C(=O)c3ccc4c(c3)N(Cc3ccccc3F)C(=O)c3ccccc3S4=O)CC2C)c1` (configuration not stated), the “activity change, positive = activation” value was inactive: -32.5%.
